Whole data set: some 81,000 sequences, median “one-hybrid fitness for binding parS DNA” near -0.17, cut for the highest 2% near 0.51. The list shows a part of the results.

This is an account of results in a collection of fitness landscapes (doi:10.1016/j.celrep.2020.107928).

B1: Caulobacter ParB omega fusion; a variant is named by its letters at X, in order, B8GW30 (parent)
chain: MESVVVGEPGMSEGRRGLGRGLSALLGEVDAAPAQAPGEQLGGSREAPIEILQRNPDQPRRTFREEDLEDLSNSIREKGVLQPILVRPSPDTAGEYQIVAGERAWRAAQRAGLKTVPIMVRELDDLAVLEIGIIENVQRADLNVLEEALSYKVLMEKFERTQENIAQTIGKSXSHVANXMRLLXLPDEVQSYLVSGELTAXHARAIAAAADPVALAKQIIEGGLSVRETEALARKAPNLSAGKSKGGRPPRVKDTDTQALESDLSSVLGLDVSIDHRGSTGTLTITYATLEQLDDLCNRLTRGI

In this assay the parent is B1. The assay can be described thus: one-hybrid fitness for binding parS DNA (scaled: cognate 1, non-cognate 0); higher = stronger binding. The settings on record: with parS DNA site. An outline of the steps:
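Bacterial one-hybrid selection in E. coli USO rpoZ- hisB- pyrF- with a HIS3 reporter carrying the site 19 bp from the promoter, screening Caulobacter ParB libraries with four specificity codons randomised (NNS). Cells grew 48 hours at 37°C on M9-minus-histidine plus 0.1 mM IPTG and 5 mM 3-AT. Plasmids before and after selection were Illumina-sequenced, three replicate libraries pooled, and variants under 10 reads dropped. Fitness is the log change in variant-to-wild-type read ratio, rescaled to cognate 1, non-cognate 0.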
Consider HPGS, for which the “one-hybrid fitness for binding parS DNA” value is no more than 0.2. With MASQ the figure was no more than 0.2; with LFSS, no more than 0.2. With HLRS the figure was no more than 0.2; with NLWR, no more than 0.2. In the case of ITNI it was no more than 0.2; in that of TCLC, no more than 0.2; in that of CPDG, no more than 0.2. As for YIVF, the “one-hybrid fitness for binding parS DNA” value is no more than 0.2. In the case of TTVS, the “one-hybrid fitness for binding parS DNA” value is no more than 0.2.

In the case of EVSR, the “one-hybrid fitness for binding parS DNA” value is no more than 0.2. As for SQLR, the “one-hybrid fitness for binding parS DNA” value is no more than 0.2. As to QDQT, the “one-hybrid fitness for binding parS DNA” value is no more than 0.2. In the case of WRYS it was no more than 0.2; in that of WVQR, no more than 0.2; in that of RPCD, no more than 0.2. Take AYVN: the “one-hybrid fitness for binding parS DNA” value was no more than 0.2.

On to QDPD, for which the “one-hybrid fitness for binding parS DNA” value is no more than 0.2.

Regarding PAGY, the “one-hybrid fitness for binding parS DNA” value is no more than 0.2.

HHPR: the “one-hybrid fitness for binding parS DNA” value is no more than 0.2. With HHRL the figure was no more than 0.2; with QLHI, no more than 0.2; with ATRC, no more than 0.2. With PCDC, the “one-hybrid fitness for binding parS DNA” value was no more than 0.2. In the case of AMCT it was no more than 0.2; in that of CPRT, no more than 0.2.

For TPFG, the “one-hybrid fitness for binding parS DNA” value is no more than 0.2. PAGT: the “one-hybrid fitness for binding parS DNA” value was no more than 0.2. With EVTF the figure was no more than 0.2; with QIWK, no more than 0.2. In the case of RSDM it was no more than 0.2. With VDSR the figure was no more than 0.2; with NIKC, no more than 0.2; with EKTC, no more than 0.2.

On to SLER, for which the “one-hybrid fitness for binding parS DNA” value is no more than 0.2. In the case of RCKE it was no more than 0.2. In the case of RSEY, the “one-hybrid fitness for binding parS DNA” value turned out to be 0.361.

On to RCYE, for which the “one-hybrid fitness for binding parS DNA” value is no more than 0.2. NKWR: the “one-hybrid fitness for binding parS DNA” value is no more than 0.2.

Turning to NMST, the “one-hybrid fitness for binding parS DNA” value was no more than 0.2. In the case of IPTS, the “one-hybrid fitness for binding parS DNA” value is no more than 0.2. EICA: the “one-hybrid fitness for binding parS DNA” value is no more than 0.2.

Take QIKC: the “one-hybrid fitness for binding parS DNA” value is no more than 0.2. In the case of SPGY it was no more than 0.2; in that of YHHW, no more than 0.2; in that of PKSP, no more than 0.2. With HKTW the figure was no more than 0.2.

Consider PSRS, for which the “one-hybrid fitness for binding parS DNA” value was no more than 0.2. With TWKE the figure was no more than 0.2. As for IVLR, the “one-hybrid fitness for binding parS DNA” value was no more than 0.2. In the case of APIC it was no more than 0.2; in that of IQDW, 0.228; in that of KVNV, no more than 0.2. As to YCST, the “one-hybrid fitness for binding parS DNA” value was no more than 0.2. On to NPPN, for which the “one-hybrid fitness for binding parS DNA” value was no more than 0.2. With STMP the figure was no more than 0.2; with ISTI, no more than 0.2; with GAPV, no more than 0.2. In the case of SLQD it was no more than 0.2. In the case of TPVH it was no more than 0.2.

Regarding WKFT, the “one-hybrid fitness for binding parS DNA” value is no more than 0.2.

On to GCDS, for which the “one-hybrid fitness for binding parS DNA” value was no more than 0.2. In the case of LQMG it was no more than 0.2; in that of YRRN, no more than 0.2; in that of WMHC, no more than 0.2. In the case of CYYY it was no more than 0.2; in that of ATHR, no more than 0.2. For KAAR, the “one-hybrid fitness for binding parS DNA” value was no more than 0.2.

Consider KTSD, for which the “one-hybrid fitness for binding parS DNA” value was no more than 0.2. In the case of DHKL it was no more than 0.2; in that of NVRT, no more than 0.2; in that of MDRT, no more than 0.2. As to ASVC, the “one-hybrid fitness for binding parS DNA” value was no more than 0.2. In the case of HIEG it was no more than 0.2. For the variant CIPY, the “one-hybrid fitness for binding parS DNA” value was no more than 0.2. With PSSE, the “one-hybrid fitness for binding parS DNA” value was no more than 0.2. In the case of TIKG it was no more than 0.2. In the case of VIPQ it was no more than 0.2; in that of RNTF, no more than 0.2. In the case of HALW it was no more than 0.2; in that of MLTN, no more than 0.2. For the variant HNTF, the “one-hybrid fitness for binding parS DNA” value was no more than 0.2.

With HLLP, the “one-hybrid fitness for binding parS DNA” value is no more than 0.2.

Consider CAHC, for which the “one-hybrid fitness for binding parS DNA” value was no more than 0.2. With WPTT the figure was no more than 0.2; with LTDS, no more than 0.2; with TWLE, no more than 0.2. As to QVVM, the “one-hybrid fitness for binding parS DNA” value was no more than 0.2. In the case of SQYW it was no more than 0.2; in that of RWMC, 0.628; in that of GVQT, no more than 0.2. In the case of QEYR it was no more than 0.2; in that of FDAS, no more than 0.2. In the case of VHHI it was no more than 0.2; in that of YAHL, no more than 0.2; in that of PRVA, no more than 0.2. As for QTNW, the “one-hybrid fitness for binding parS DNA” value was no more than 0.2.
